This is an account of results in patent publication US20260176310A1 (NAVIGO PROTEINS, published 2026).

The term Kd denotes the free concentration of one partner at which half of the binding sites on the other are occupied at equilibrium, for simple one-to-one binding. Low values mean a tighter complex, high ones a looser complex.

To fix the notation:
T1: hFAP-Fc (human, UniProt Q12884 26-760)
T1 construct: extracellular domain; Made in house in Expi293-F cells; also called hFAP-Fc-His; human FAP; not shown: IgG1-Fc
T1 sequence (looked up): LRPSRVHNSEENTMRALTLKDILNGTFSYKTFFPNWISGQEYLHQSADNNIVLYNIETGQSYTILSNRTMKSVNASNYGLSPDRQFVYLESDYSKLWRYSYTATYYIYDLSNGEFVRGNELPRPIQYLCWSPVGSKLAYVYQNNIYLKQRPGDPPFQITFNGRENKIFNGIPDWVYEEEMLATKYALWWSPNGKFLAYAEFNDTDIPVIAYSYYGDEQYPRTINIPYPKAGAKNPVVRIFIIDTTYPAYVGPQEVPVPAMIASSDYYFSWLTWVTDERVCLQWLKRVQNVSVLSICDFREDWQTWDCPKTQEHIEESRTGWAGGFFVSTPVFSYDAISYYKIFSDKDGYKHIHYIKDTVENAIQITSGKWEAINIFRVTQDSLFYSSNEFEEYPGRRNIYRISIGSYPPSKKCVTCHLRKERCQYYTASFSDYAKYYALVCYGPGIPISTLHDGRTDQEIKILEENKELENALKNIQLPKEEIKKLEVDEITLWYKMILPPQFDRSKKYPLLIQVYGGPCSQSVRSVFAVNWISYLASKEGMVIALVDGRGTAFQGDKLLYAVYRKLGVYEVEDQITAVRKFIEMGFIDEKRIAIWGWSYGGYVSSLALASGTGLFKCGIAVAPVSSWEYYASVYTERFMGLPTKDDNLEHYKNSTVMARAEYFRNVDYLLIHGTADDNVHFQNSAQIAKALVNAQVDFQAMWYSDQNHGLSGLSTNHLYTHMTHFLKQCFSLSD

B1: Affilin®-217990 (designed binder)
chain: MQIFVKTLTPEWHIIGKTITLEVEPSDTIENVKAKIQDKEGIPPDQQNLAWAGKQLEDGRTLSDYNIQGGSMLMLKLHLRAA
notes: Ubiquitin mutein
B2: Affilin®-220257 (designed binder)
chain: MQIFVWTITGKPITLEVEPSDTIENVKAKIQDKEGIPPDQQRLIWAGKQLEDGRTLSDYNIRSWPNLHLVLRLRAGMQIVVHTATGKTITLEVEPSDTIGHVKAKIQDTEGIPPDQQRLIWAGKQLEDGRTLSDYNIEDFPPLHLVLRLRAA
notes: Ubiquitin mutein
B3: Affilin®-220164 (designed binder)
chain: MQIFVWTDDWKRITLEVEPSDTIENVKAKIQDKEGIPPDQQVLAWRGKQLEDGRTLSDYNIMVWPNLWLRLRAA
notes: Ubiquitin mutein
B4: Affilin®-217863 (designed binder)
chain: MQIFVWTEMHKRITLEVEPSDTIENVKAKIQDKEGIPPDQQHLTWKGKQLEDGRTLSDYNISEWPNLFLRLNLRAA
notes: Ubiquitin mutein

For the first test, the target named is T1, hFAP-Fc. In words: ELISA on coated hFAP-Fc (2.5 µg/ml); Affilin dilution series in 100% mouse serum, 0 h preincubation; detection with biotinylated anti-ubiquitin antibody and Streptavidin-HRP. On the procedure: (§1) High binding plates (Greiner, 781061) were immobilized with 2.5 μg/ml hFAP-Fc over night at 4° C. Dilution series of 3 µM to 0.07 PM of Affilin® proteins were incubated in 100% human serum or 100% mouse serum for 24 h at 37° C.
(§2) ELISA-plates were washed three times with PBST (PBS+ 0.1% Tween) and blocked with 3% BSA/0.5% Tween/PBS 1 h at rt. After preincubation for 0 h or 24 h in the presence of serum the dilution series were incubated on ELISA-plates for 30 min at room temperature (rt). Wells were washed with PBST and incubated with biotinylated anti-ubiquitin-antibody (1:300) for 30 min at rt. The binding was visualized with Streptavidin-HRP (1:5.000). […] ELISA analysis confirmed the high stability of FAP binding proteins in serum.
In general terms: In an ELISA, binding on a coated surface is turned into a signal by an enzyme label.
As to B1, the equilibrium dissociation constant (Kd) turned out to be 0.73 nM.
The same measure, in the same setting: as for B2, the figure is 0.22 nM; as for B3, 2.1 nM.

A further test addresses T1, hFAP-Fc. In words: ELISA on coated hFAP-Fc (2.5 µg/ml); Affilin dilution series preincubated 24 h at 37 °C in 100% human serum; detection with biotinylated anti-ubiquitin antibody and Streptavidin-HRP. On the procedure:
as §1, §2
In turn, B1 came in with a Kd of 1.18 nM.
In turn, B2 had a Kd of 0.38 nM.
Same read-out and setting: as for B3, the figure is 0.74 nM.

A further test deals with T2, mCD26-Fc (mouse, UniProt P28843 29-760, limits assumed).
T2 construct: Off-target in SPR; construct not described further; also called mCD26-Fc-His; not shown: Fc
T2 sequence (P28843 29-760 limits assumed): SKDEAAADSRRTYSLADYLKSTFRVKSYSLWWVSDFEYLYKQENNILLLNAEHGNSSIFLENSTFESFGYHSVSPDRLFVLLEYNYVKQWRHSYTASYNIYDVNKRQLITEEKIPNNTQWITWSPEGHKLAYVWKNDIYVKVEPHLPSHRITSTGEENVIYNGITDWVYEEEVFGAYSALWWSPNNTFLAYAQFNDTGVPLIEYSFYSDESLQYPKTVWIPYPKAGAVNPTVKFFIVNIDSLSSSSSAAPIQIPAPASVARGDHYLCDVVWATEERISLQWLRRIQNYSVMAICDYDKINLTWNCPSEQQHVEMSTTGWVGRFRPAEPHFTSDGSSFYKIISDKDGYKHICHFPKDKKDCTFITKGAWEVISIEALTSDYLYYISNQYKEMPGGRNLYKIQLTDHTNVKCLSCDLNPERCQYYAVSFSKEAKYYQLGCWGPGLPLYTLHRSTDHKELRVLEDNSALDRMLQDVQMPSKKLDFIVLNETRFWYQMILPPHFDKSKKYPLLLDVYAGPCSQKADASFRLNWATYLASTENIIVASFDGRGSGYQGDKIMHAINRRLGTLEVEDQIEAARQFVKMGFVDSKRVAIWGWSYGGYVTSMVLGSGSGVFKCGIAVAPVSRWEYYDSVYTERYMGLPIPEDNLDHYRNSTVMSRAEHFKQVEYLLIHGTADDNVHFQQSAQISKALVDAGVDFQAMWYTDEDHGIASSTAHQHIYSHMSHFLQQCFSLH
In words: SPR, Fc-tagged CD26 captured on protein A.
Take B1: the binding result is listed as “no binding”.
On to B4, for which the binding result was “no binding”.
For B2, the binding result is given as “no binding”.
Turning to B3, the binding result is listed as “no binding”.

The next test has as its target T3, hCD26-Fc (human, UniProt P27487 29-766, limits assumed).
T3 construct: Off-target in SPR; the in-house construct is not described further; also called hCD26-Fc-His; not shown: Fc
T3 sequence (P27487 29-766 limits assumed): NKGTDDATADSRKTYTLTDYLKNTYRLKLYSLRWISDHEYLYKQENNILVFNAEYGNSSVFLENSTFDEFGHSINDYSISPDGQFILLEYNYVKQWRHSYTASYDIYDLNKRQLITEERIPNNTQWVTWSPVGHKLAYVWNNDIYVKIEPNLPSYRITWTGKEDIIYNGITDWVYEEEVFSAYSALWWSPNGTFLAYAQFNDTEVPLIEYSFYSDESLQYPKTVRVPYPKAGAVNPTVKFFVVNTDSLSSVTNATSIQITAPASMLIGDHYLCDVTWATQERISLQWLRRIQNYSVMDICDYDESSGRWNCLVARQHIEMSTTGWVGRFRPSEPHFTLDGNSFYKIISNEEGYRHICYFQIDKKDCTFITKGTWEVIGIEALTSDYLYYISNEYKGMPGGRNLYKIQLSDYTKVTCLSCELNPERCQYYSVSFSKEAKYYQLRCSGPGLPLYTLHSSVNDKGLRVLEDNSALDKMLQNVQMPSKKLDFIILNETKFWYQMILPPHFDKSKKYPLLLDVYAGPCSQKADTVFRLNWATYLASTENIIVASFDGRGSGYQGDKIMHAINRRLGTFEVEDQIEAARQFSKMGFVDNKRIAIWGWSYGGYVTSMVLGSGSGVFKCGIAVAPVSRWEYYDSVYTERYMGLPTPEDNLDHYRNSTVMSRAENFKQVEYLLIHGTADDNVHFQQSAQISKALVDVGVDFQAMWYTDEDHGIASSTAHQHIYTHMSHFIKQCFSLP
In words: SPR, Fc-tagged CD26 captured on protein A. In general terms: In SPR one partner is held on a chip, and binding of the other changes the refractive index at the surface.
Consider B1, for which the binding result is recorded as “no binding”.
Still for that read-out and setting: next, B4: “no binding”.
Regarding B2, the binding result was “no binding”.
On the same count and under the same terms, as for B3, the entry is “no binding”.

For another test, the target named is T1, hFAP-Fc. In words: ELISA on coated hFAP-Fc; Affilin in mouse serum, 24 h at 37° C. On the procedure: as §1, §2
B1 gave a Kd of 1.1 nM.
Same read-out and setting: as for B2, the figure is 0.4 nM.
For the molecule B3, binding was put at a Kd of 2 nM.

The next test has as its target T1, hFAP-Fc. Description: ELISA on coated hFAP-Fc (2.5 µg/ml); Affilin dilution series preincubated 24 h at 37 °C in 100% mouse serum; detection with biotinylated anti-ubiquitin antibody and Streptavidin-HRP. On the procedure:
as §1, §2
B1 came in with a Kd of 1.13 nM.
In turn, B2 displayed a dissociation constant (Kd) of 0.37 nM.
In the case of B3, the dissociation constant (Kd) was found to be 1.95 nM.
